# The list shows a part of the results. The list includes weakly bound sequences.
# Target: MaxL homodimer (UniProt P61244)
# Assay: universal protein-binding microarray (PBM)
# Conditions: PBS-based mixture, 10 nM His-tagged protein dimer, 2% milk, 200 ng/uL BSA, 50 ng/uL salmon testes DNA, 0.02% TX-100; detection with Alexa 488 anti-His …; high values mean tight binding; most listed sequences are background and not binding sites; double strand, one strand shown
# UniProt P61244, sequence (P61244 whole entry): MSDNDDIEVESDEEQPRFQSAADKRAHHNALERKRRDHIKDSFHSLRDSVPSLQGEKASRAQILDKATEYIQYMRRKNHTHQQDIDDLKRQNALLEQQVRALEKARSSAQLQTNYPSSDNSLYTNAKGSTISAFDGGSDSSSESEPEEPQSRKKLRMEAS
row,Sequence,binding signal (normalized occupancy)
1,CACCACCA,0.0797
2,GCGATGCA,0.0712
3,GACTTCTC,0.075
4,ATATTGGC,0.0813
5,ACCATCTC,0.0758
6,GAAGATCC,0.0732
7,GAGATCGA,0.0735
8,GAACCTTA,0.0694
9,GCACGTAA,0.0846
10,AACTAAAC,0.0739
11,ATCTAGAG,0.0731
12,ATAGGTTA,0.0866
13,ACTCATAG,0.0819
14,CCCGGGTC,0.07
15,CGTGCTTC,0.0896
16,GGGGCCCA,0.0703
17,CAAGCTGC,0.0701
18,TTCAGCAA,0.0788
19,AAAGGGAA,0.0742
20,CACGTTAA,0.0921
21,AGCGCATA,0.0757
22,ACTTCAAT,0.0781
23,AAGGCGCC,0.0704
24,CCGTAGAA,0.07
25,CCGCCCAC,0.0735

row,Sequence,binding signal (normalized occupancy)
1,CCGCCGGC,0.0624
2,AGAGCTTC,0.0656
3,CGTGATAA,0.0906
4,ATAAGTGG,0.0731
5,ACGTGCAT,0.104
6,ATCTTTTC,0.0767
7,CAGAGGTA,0.0667
8,AACTCATG,0.0927
9,GGGGATGA,0.0802
10,TCGAACCA,0.0767
11,ATGCCAAG,0.0786
12,ATAGTTGA,0.0762
13,AGTTGGAA,0.069
14,ATGGACCC,0.0803
15,CCACCAGG,0.0739
16,AAGAGTCA,0.0776
17,CTGGGTAA,0.0719
18,ATACACGA,0.0889
19,GCAGGACA,0.0704
20,GTAGAGCA,0.0741
21,ATAGGCAA,0.0784
22,GCCCCGGA,0.0676
23,AGCTGGGG,0.0674
24,TAGCCGAA,0.0697
25,AAACCATT,0.0769

row,Sequence,binding signal (normalized occupancy)
1,ATGGTCTG,0.0769
2,GCAGGCGA,0.075
3,AGGGTTTC,0.0725
4,CACGTCAC,0.0901
5,GAGAAGGA,0.0733
6,CGGTCTTC,0.0716
7,GTACTCAA,0.0762
8,TGAACTCA,0.0755
9,ACAAGGAT,0.0764
10,GGTGTCAA,0.0753
11,GTGATCTA,0.0775
12,ATCCGCTA,0.069
13,ATAAACTA,0.0706
14,ATATCTCC,0.0807
15,ACACGTCG,0.0849
16,CTCATTCA,0.0751
17,ATGGCGGG,0.0805
18,AGATGTAA,0.0794
19,CCAACCTC,0.0754
20,GATGAGAA,0.0748
21,CAGCTTGA,0.0716
22,GCTGCTTA,0.0692
23,CGTCAAAC,0.0741
24,TCACCGAA,0.0704
25,AGGGTGAC,0.0768

row,Sequence,binding signal (normalized occupancy)
1,CTACGTAG,0.0706
2,ACGTGGAA,0.108
3,AAATGAGG,0.0874
4,ACGTTGGA,0.0794
5,CGTCGACG,0.07
6,ACGCTCCA,0.0735
7,TAAGAGCA,0.0777
8,CCGCACTA,0.0724
9,ACCTTTGC,0.0696
10,CTCCTCAG,0.0738
11,AGAATGTA,0.0758
12,AGTCCGCG,0.0732
13,GGATATGA,0.0848
14,GGTGGCAA,0.0755
15,CAAACGCA,0.0734
16,AAACGGGT,0.0744
17,AGTGATAA,0.0774
18,AATGGCGG,0.0712
19,CAAGACGC,0.0714
20,ACAGATAA,0.0778
21,GAGCCCAA,0.0733
22,GCTTGCGA,0.0665
23,GCGGCAGC,0.0701
24,AATGGCGT,0.0784
25,ATTGCAAA,0.0748

row,Sequence,binding signal (normalized occupancy)
1,AGGTCTCC,0.0696
2,AGGGTCGC,0.0684
3,ACCAGGTA,0.0723
4,GTGATAGA,0.0855
5,AGTTAGTC,0.07
6,CAGAACTC,0.0683
7,CATATTAG,0.0796
8,ACACTGGG,0.0763
9,GCCAAATA,0.0765
10,GGCGCAAC,0.0668
11,AAAAACCT,0.072
12,AGTGCAGC,0.071
13,AGGCTAAT,0.0714
14,GTTCACTA,0.0695
15,ATACTATC,0.0803
16,AGGAACAA,0.0686
17,GATCACCA,0.0749
18,ATTTCTAC,0.0772
19,CGTAGTAG,0.0708
20,AACGTTGC,0.0766
21,CGAGAACA,0.0747
22,GGCAAGAC,0.0729
23,GCGCGAGA,0.0753
24,CGCTTGTA,0.0739
25,CTCTGATA,0.073

row,Sequence,binding signal (normalized occupancy)
1,ATAGTAAG,0.0776
2,ACCTTATG,0.0812
3,ACCGCAAC,0.0732
4,CAGCCTGA,0.0752
5,CGTTAGAC,0.0747
6,ACCAGGGC,0.0733
7,AATTCTGG,0.0737
8,GCAATAGC,0.0744
9,AAAGCATT,0.0756
10,GTAATTGA,0.0751
11,GCATAACA,0.0808
12,AGGCGTAC,0.0691
13,AGCGGTAG,0.0702
14,CATATAAG,0.0879
15,ACATCTAG,0.0794
16,CGCGACCC,0.0794
17,GCAAGTAA,0.0728
18,TCAATTAA,0.0721
19,ATACGCGA,0.0737
20,GACTCCCA,0.0753
21,TCGTGAGA,0.0809
22,ACATGCGT,0.127
23,CTCGTGGC,0.119
24,GCATGACA,0.088
25,CACTCTGG,0.0716

row,Sequence,binding signal (normalized occupancy)
1,AGGCGTTA,0.0751
2,CACTTTAA,0.0746
3,ATAAAACC,0.0743
4,CAACTTCG,0.0721
5,ATGACCGC,0.0805
6,CTATTCCA,0.0808
7,CTCTTCAC,0.0783
8,ATCGAATG,0.0791
9,GTCCGGAA,0.0658
10,GAAGCCGC,0.0703
11,CTGCAAGC,0.0718
12,CAAAACAC,0.0759
13,GGTCGTTA,0.0762
14,ATACGTGG,0.0842
15,CAGGCGCA,0.0718
16,AACTAGTC,0.0713
17,ACATACCT,0.0797
18,CCGTCGGA,0.0712
19,GGCCCTTA,0.0762
20,CATCGAAC,0.082
21,AACCCCTG,0.0755
22,CCAGTCTA,0.0717
23,GTGACGTA,0.0803
24,GCTGGAAC,0.0707
25,AGTGAGTG,0.0734

row,Sequence,binding signal (normalized occupancy)
1,CTCACGAA,0.0733
2,AAAATCCC,0.0763
3,CCGTATTA,0.0751
4,GGGGTAGA,0.0824
5,CAGGAAAC,0.071
6,GGCCCGCA,0.0711
7,CATCCCCA,0.0811
8,AACCACAA,0.0762
9,AATCGGGT,0.0718
10,ACGTGCAC,0.113
11,CCAGCACC,0.0726
12,AGGTATCC,0.0786
13,CCCAGCAC,0.0816
14,CACTTGTA,0.0798
15,CAAAGACA,0.0767
16,GAGTCAGA,0.0718
17,GCTACAGC,0.072
18,AAATTCCA,0.0772
19,GTTGTGTA,0.08
20,CTGGGACA,0.073
21,AGATCTGA,0.0793
22,ATTGTGGC,0.0759
23,AATAGGCC,0.0758
24,CTGAACAA,0.0787
25,GAAGATAC,0.0737

row,Sequence,binding signal (normalized occupancy)
1,ATAAAGCG,0.0719
2,CATCAACC,0.0787
3,CTGAAGCA,0.0733
4,CGGTCTGA,0.0686
5,AGGAGCCG,0.0692
6,GGCCGCGA,0.0696
7,GAGCTGAC,0.075
8,GATACTCA,0.0757
9,GAGTCTTA,0.0751
10,CCCACAAC,0.0789
11,AGATTACC,0.0753
12,ACTTGTCG,0.0703
13,AATTGTGT,0.0778
14,ATTCATCG,0.0765
15,ACCAAGCC,0.0728
16,AGTGGTCG,0.0719
17,GACCCGAC,0.0717
18,CAACACAC,0.091
19,AAGGTAGA,0.0772
20,CTCACACA,0.0809
21,GATGTGCC,0.0796
22,ATTCCAGG,0.0758
23,AGCTAACA,0.0752
24,CGAAGTTA,0.0712
25,ATTTACGA,0.0753

row,Sequence,binding signal (normalized occupancy)
1,ATCGGAGC,0.0669
2,ACGTGGCC,0.094
3,CGTAGGAG,0.0692
4,CTCTACCC,0.0753
5,CACCTTAA,0.0763
6,GGCAACGA,0.0726
7,GTACCGAC,0.0693
8,CGCGCAAG,0.0678
9,AGATGGCT,0.0821
10,GGACGAAA,0.0678
11,CGTTCTAC,0.0752
12,CACATATA,0.0878
13,AACTCGAG,0.0767
14,GAGTAAGC,0.072
15,TACGCGAA,0.0699
16,AGGACGCC,0.0678
17,CGCTCCCA,0.0722
18,CTACAATC,0.0744
19,AACCCGTC,0.0785
20,GGCCTCAA,0.0706
21,AGGCGTGC,0.0963
22,ACCTATCG,0.0765
23,AATGCTCC,0.0717
24,GTGCCATA,0.0859
25,GTACCCCA,0.0809

row,Sequence,binding signal (normalized occupancy)
1,AGGGGAAC,0.0733
2,CGAGGCGC,0.0686
3,CTTCTTGC,0.072
4,CGGAGATA,0.0723
5,GGCAAGAA,0.0731
6,GTCGCTTA,0.0717
7,AACAACCT,0.0766
8,ACTGTCCC,0.073
9,CGTCGTTA,0.0753
10,CGCCGTTC,0.0719
11,GTGTACAC,0.0784
12,TATCTAAA,0.0766
13,AATTGATA,0.0754
14,GAACTGAA,0.0697
15,CACCCATG,0.1
16,CGAGTTTA,0.0726
17,CGGTCGAA,0.0683
18,CATGCCCA,0.0953
19,ACCTGCAA,0.0779
20,GTGGCAGA,0.085
21,GCTACAGA,0.0764
22,CAAGGCAC,0.0689
23,GCGATTAA,0.0741
24,ACCCGGGC,0.069
25,AACCTTAC,0.0724

row,Sequence,binding signal (normalized occupancy)
1,GAGTGCGA,0.073
2,ACAACAAA,0.0724
3,GACTCCAA,0.0705
4,ACTCGTTC,0.0746
5,CAGTTTGA,0.0703
6,TAGCACCA,0.0737
7,AGTGCGTC,0.0753
8,CTGGTGAA,0.0729
9,ATGATGTC,0.0854
10,AAGCTGGT,0.0639
11,GGAGCGCC,0.064
12,CCACATAA,0.0799
13,AGTTCCCC,0.0718
14,CACTTGTC,0.0792
15,TAACATGA,0.0906
16,ATGGGCTC,0.0751
17,CATATGGA,0.095
18,GTCGTCTA,0.0703
19,AAGAAATC,0.0706
20,GGATCATA,0.0808
21,CCTTCGTA,0.0697
22,AATTTTTA,0.0734
23,AAGCGCCG,0.0648
24,ACTGATAG,0.0744
25,TAAACAAA,0.078

row,Sequence,binding signal (normalized occupancy)
1,CTACGAGC,0.0711
2,AACTCATC,0.0815
3,ATGCGGGA,0.0837
4,GCGGTACC,0.0716
5,CGTCTAGC,0.0671
6,AGGCATAG,0.0784
7,ACGCGGAA,0.0749
8,CAGTGGTC,0.0694
9,AGAATTAG,0.0746
10,CCAATTAG,0.0733
11,AGTATCCA,0.0751
12,CCTTTCAC,0.0737
13,AAAAAGTT,0.0686
14,GACCATCA,0.0742
15,AACTTCAT,0.0769
16,TACAGGCA,0.0794
17,ACATGAGT,0.09
18,ACTCCAAC,0.0732
19,CCCCATCG,0.0763
20,TAGCATCA,0.0821
21,GGCTTACA,0.0708
22,GCAAGGAA,0.0739
23,CCTGTCGA,0.0755
24,ACTTGCTA,0.0766
25,ACTGAGGA,0.0703

row,Sequence,binding signal (normalized occupancy)
1,GCCGATCC,0.073
2,ATCTGCTC,0.0788
3,CGGCACAA,0.0773
4,GTTCTCTA,0.0731
5,ACTTGTCC,0.0745
6,AAAGTACT,0.07
7,TCCGAACA,0.0723
8,AGTTGCGA,0.0747
9,GACTTCTA,0.0709
10,CGAAGACA,0.0716
11,ACCGCGGA,0.0699
12,AACAGGTG,0.102
13,ATCCTAGA,0.0777
14,AGCTGGTC,0.066
15,CCTTGGGC,0.0653
16,ACTATCTG,0.0778
17,CGACAGCC,0.0758
18,CACGTCCG,0.0797
19,CTGTAATC,0.0775
